Data: PubChem BioAssay AID1461 (National Center for Advancing Translational Sciences (NCATS), 2008)
The whole screen tested about 220,000 compounds, of which about 2,300 (1%) were called active. This list was built around the results that the source calls inconclusive (neither active nor inactive); the mix of calls is not that of the screen. The call rests on the fitted dose curve; in most records, active means well fitted inhibition curve with a large enough effect; inconclusive means small, poorly fitted or top-dose-only effect, or effect the other way; inactive means no such curve, though single readings can be large or run the other way. Potencies of inconclusive entries are left out as doubtful fits.

molecular target: Neuropeptide S receptor (Homo sapiens) (UniProt Q6W5P4); test: qHTS Assay for Antagonists of the Neuropeptide S Receptor: cAMP Signal Transduction; settings: CHO-NPSR cells, cAMP TR-FRET, antagonist mode; series mostly up to 38.3 µM; further: nearly all actives have a fitted effect of over 50% in size
UniProt Q6W5P4, sequence (Q6W5P4 whole entry, looked up): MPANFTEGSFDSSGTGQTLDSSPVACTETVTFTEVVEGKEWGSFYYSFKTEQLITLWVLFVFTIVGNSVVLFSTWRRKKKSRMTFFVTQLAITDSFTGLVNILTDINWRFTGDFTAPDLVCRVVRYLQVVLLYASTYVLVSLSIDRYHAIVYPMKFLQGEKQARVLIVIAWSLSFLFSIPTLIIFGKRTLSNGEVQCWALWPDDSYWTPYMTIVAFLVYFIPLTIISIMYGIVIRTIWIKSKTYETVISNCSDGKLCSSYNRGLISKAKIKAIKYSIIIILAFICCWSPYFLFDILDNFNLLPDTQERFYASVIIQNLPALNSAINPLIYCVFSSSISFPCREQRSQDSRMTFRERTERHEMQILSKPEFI
Potency means the concentration at half of the fitted maximal effect; tags describe the fitted curve by direction and shape.

Row | SMILES | Potency
1 | O=C(CCNc1ccc(F)cc1)c1cccc([N+](=O)[O-])c1 | inactive
2 | [N-]=[N+]=CC(=O)C(c1ccccc1)(c1ccccc1)c1ccccc1 | inconclusive [inhibitor, single point]
3 | Cc1cc(NC(=O)Nc2ccc3c(ccn3C)c2)sn1 | inconclusive [inhibitor, full curve]
4 | COc1ccccc1-n1cnc2cc(NCc3ccco3)ccc21 | inconclusive [activator, single point]
5 | O=C(O)c1ccc(O)c(N2C(=O)Nc3ccccc3N2O)c1 | inactive
6 | COc1ccc(/C=C/C(=O)NCc2c(C)nn(C)c2C)cc1COc1ccc(Br)cc1 | inconclusive [inhibitor, single point]
7 | CC1CCC(N2CC(=O)N(Cc3ccc4c(c3)OCO4)C(c3ccc(F)cc3)C2=O)CC1 (stereo unspecified) | inconclusive [inhibitor, single point]
8 | COc1ccc(NC(=O)Cn2nc(Cc3cccnc3)c3ccccc3c2=O)cc1OC | inactive
9 | CCn1c(SCC(=O)N2c3ccccc3Sc3ccccc32)nc2c1c(=O)n(C)c(=O)n2C | inconclusive [inhibitor, single point]
10 | CC(C)=NOc1cc(NC(=O)CCl)cc([N+](=O)[O-])c1 | inactive
11 | CCOC(=O)c1ccc(NC(=O)CN2C(=O)CSC2=O)cc1 | inconclusive [inhibitor, partial curve, poor fit]
12 | CC(=O)c1ccc(NC(=O)CSc2ccc(-c3ccc4c(c3)OCO4)nn2)cc1 | inconclusive [inhibitor, single point]
13 | COc1ccc(-c2nc(N3CCC(C)CC3)[nH]c(=O)c2C#N)cc1 | inconclusive [inhibitor, single point]
14 | S=c1[nH]nc(-c2ccco2)n1/N=C/C(Cl)=C/c1ccccc1 | inconclusive [activator, partial curve]
15 | CC1Oc2ccccc2OC1(O)c1ccc2ccccc2n1 (stereo unspecified) | inactive
16 | CCOc1ccc(NC(=O)CCC(=O)NNC(=O)Nc2ccc(Cl)cc2)cc1 | inactive
17 | CCCCn1c(=O)n(Cc2cccc(F)c2)c(=O)c2c1ncn2Cc1ccco1 | inconclusive [inhibitor, single point]
18 | CS(=O)(=O)c1ncc(Cl)c(C(=O)Nc2ccc(N3CCOCC3)cc2)n1 | inconclusive [inhibitor, full curve, poor fit]
19 | O=C(COC(=O)c1c2c(nc3ccccc13)CCCC2)c1cccs1 | inconclusive [inhibitor, single point]
20 | COCCSc1ccccc1C(=O)N1CCOCC1 | inactive
21 | COc1ccc(NS(=O)(=O)c2cc(OC)ccc2NC(=O)c2cc(C)oc2C)cc1 | inactive
22 | CN=C1S/C(=C\c2cc(C)n(-c3ccccc3F)c2C)C(=O)N1C | inconclusive [activator, partial curve]
23 | O=S(=O)(c1ccc2c(c1)OCCO2)N(Cc1ccc(F)cc1)Cc1nnc(-c2cccs2)o1 | inactive

Row | SMILES | Potency
24 | CSc1ncccc1-c1nc2ccccc2[nH]1 | inconclusive [activator, partial curve]
25 | Cc1ccc(NC(=S)N(C)N)cc1Cl | inactive
26 | Cc1ccc(-c2noc(CSc3nnc(Cc4ccccc4)n3-c3cccc(C)c3)n2)cc1 | inconclusive [inhibitor, single point]
27 | CCn1ccnc1CN(C)Cc1cn(-c2ccc(C)cc2)nc1-c1ccc(F)cc1 | inconclusive [activator, single point]
28 | Cn1cnc([N+](=O)[O-])c1Sc1nnc(-c2cccnc2)n1C | inactive
29 | Cc1cccc(C(=O)NC(=S)Nc2ccccc2C(F)(F)F)c1 | inconclusive [inhibitor, single point]
30 | Cc1cc(/C=N/NC(=O)c2cccc([N+](=O)[O-])c2)c(C)n1-c1ccccc1 | inactive
31 | Cc1ccc2c(c1)N=C(c1ccccc1)CC(C(Cl)Cl)=N2 | inconclusive [inhibitor, single point]
32 | CCCC(=O)NC(NC(=S)Nc1ccc(S(N)(=O)=O)cc1)C(Cl)(Cl)Cl (stereo unspecified) | inactive
33 | O=C(N/N=C/c1ccc([N+](=O)[O-])cc1)c1ccc2nc[nH]c2c1 | inactive
34 | O=c1[nH]c2cc3c(cc2cc1CN(Cc1cccs1)Cc1nnnn1Cc1ccco1)OCCO3 | inconclusive [inhibitor, single point]
35 | Cc1cccc(-n2c(C)cc(C(=O)NC3CCCCC3)c2C)c1 | inactive
36 | Cc1cc(NC(=O)c2coc(=O)c(Br)c2)ccc1C(C)C | inconclusive [activator, single point]
37 | COc1cccc2sc(NC(=O)c3ccc(Br)s3)nc12 | inconclusive [inhibitor, single point]
38 | CCN1C(=O)/C(=C\N2CCN(c3cccc(Cl)c3)CC2)SC1=S | inconclusive [inhibitor, single point]
39 | Cc1ccc(NC(=O)CN2C(=O)NC(Cc3c[nH]c4ccccc34)C2=O)cc1S(=O)(=O)N1CCCCC1 (stereo unspecified) | inactive
40 | COc1ccc(C2=Nn3c(nnc3-c3ccccc3OC)SC2)cc1OC | inconclusive [activator, full curve, poor fit]
41 | CC(=O)OC(c1nc2ccccc2c(=O)n1C1CC2(OC1=O)c1ccccc1N1C(=O)C(C)(C)N(O)C12)C(C)C (stereo unspecified) | inactive
42 | CC1CCN(CC(=O)NCc2ccccc2)CC1 | inactive
43 | CCC(c1nnnn1Cc1ccccc1)N(Cc1ccco1)Cc1cc2cc(OC)ccc2[nH]c1=O (stereo unspecified) | inconclusive [inhibitor, partial curve]
44 | O=[N+]([O-])c1ccc(N/N=C/c2c[nH]c3ccccc23)c(S(=O)(=O)Nc2ccc(Cl)cc2)c1 | active: 15.8 µM
45 | CC(C)(C)c1ccccc1OCC(=O)NCCC(=O)O | inconclusive [inhibitor, single point]
46 | COC(=O)CS(=O)(=O)c1nnc([C@H](Cc2ccccc2)NC(=O)OC(C)(C)C)o1 | active: 7.94 µM
